Test results: paper PMC10668032
The list shows a part of the results. At the low end of the ranking the order means little.

Biological target: SIX1 homeodomain (reference allele) (UniProt Q15475)
Assay: universal protein binding microarray
Details: Universal all-10-mer PBM (8x60K, AMADID 030236), 300 nM GST-tagged protein, Alexa Fluor 488 anti-GST; buffer, salt, pH and temperature not stated; high values mean tight binding; most listed sequences are background and not binding sites; double strand, one strand shown

Sequence	binding signal
CTCTCATA	0.0633 E-score
CCGGCCGG	-0.0496 E-score
CTACGGGA	0.103 E-score
ATTCATGC	0.0344 E-score
ACGTCGCT	-0.247 E-score
GGCGGCCC	-0.221 E-score
CCGCGTGC	-0.154 E-score
CGCGCCTC	-0.0228 E-score
TACACCTA	0.304 E-score
ATATAAAT	0.21 E-score
ATTAAATA	0.24 E-score
CGTACTGA	0.113 E-score
AGATAGGC	0.0836 E-score
CCCAGTCG	-0.108 E-score
CGGTATCC	0.451 E-score
GGAGGATA	0.387 E-score
AGGCGTAT	0.318 E-score
GCATTTCC	-0.255 E-score
CTACCAGC	-0.178 E-score
GGTCTCCA	-0.0342 E-score
AGAAATTA	-0.276 E-score
CGCACTGA	0.0595 E-score
GATTGTCC	-0.115 E-score
AGAACGCC	-0.229 E-score

Sequence	binding signal
CATACAAC	0.0308 E-score
ATACAGCA	0.221 E-score
GAGGCCAA	-0.129 E-score
AATAGCGA	0.0409 E-score
GAGCGCGC	-0.167 E-score
ACGCATTA	-0.105 E-score
CCACTTAG	-0.0735 E-score
GGTCGACC	-0.0987 E-score
CTGGTAAC	-0.0986 E-score
CCATTATA	0.177 E-score
AGTGTCTA	0.0274 E-score
AGATTAGC	-0.0739 E-score
GCATCGCC	-0.0214 E-score
AGTCCGTA	-0.165 E-score
AGATAAAA	0.0034 E-score
CGCAGTCC	-0.0475 E-score
GCGACGAC	-0.273 E-score
CTCTTGCC	-0.113 E-score
ATACCGCC	0.418 E-score
GACCCCAC	0.039 E-score
GTGTCGCA	0.173 E-score
CTAATGTA	0.106 E-score
ATCTATGG	0.065 E-score
CCGCCCGA	0.129 E-score

Sequence	binding signal
AGTGGTAC	-0.164 E-score
GGCGCACA	-0.168 E-score
ACACGCAC	0.0584 E-score
CAACGAGA	0.0289 E-score
CACACTCA	-0.0303 E-score
CACCCTGG	0.0845 E-score
AGTAGGGC	-0.107 E-score
AGAGTGCC	-0.329 E-score
ACTGGGGC	-0.0721 E-score
ATAGGACA	0.0181 E-score
GCACTGGA	-0.0936 E-score
AGGCGCAC	-0.0935 E-score
GTCTAGGA	-0.0546 E-score
ACACATGA	-0.104 E-score
AGTCTGGC	-0.227 E-score
ATCTATTC	0.24 E-score
CTCCGAGC	0.0974 E-score
ACCACGGC	-0.0202 E-score
CATCAATA	0.0491 E-score
GGCAAAGA	-0.17 E-score
AGTTCGAG	-0.0394 E-score
AGCCCTCC	-0.117 E-score
AGGTGTAT	0.377 E-score
ATAGATGA	0.287 E-score

Sequence	binding signal
GGTTAAAA	-0.155 E-score
GAGCTCCC	0.0985 E-score
CTGCGCGC	0.0228 E-score
CCTTAAAC	-0.0612 E-score
ATAGCCAC	0.213 E-score
CGAAGGTA	0.103 E-score
CCCGGACG	-0.218 E-score
GCGGATAA	0.317 E-score
GACTTCGA	-0.297 E-score
GTAGTCAC	-0.211 E-score
CCCCATGC	0.112 E-score
AAAGTGAT	0.242 E-score
ACGTCTGC	-0.217 E-score
AGATCCAT	0.254 E-score
CGGGTACG	0.0311 E-score
CCGCGCAC	0.0187 E-score
CAGCCTTC	-0.211 E-score
GTATGCAC	-0.0857 E-score
AGACACTG	0.102 E-score
CCCACTTA	-0.0226 E-score
AGGGTAGA	0.0296 E-score
AGTCACAA	-0.111 E-score
